According to the supplement of paper PMC10126150:
Sequences with one replicate were seen in a single cluster, so their values are uncertain.

Test system: ATP
Assay: switch fluorescence ratio, 500 uM ATP over buffer (Cy3 cluster intensity, sum of 5 cycles each) (fold (ratio)); higher = stronger signal-on switching upon ATP binding; sequences stand for … in TCGTCGGCAGCGTCAGATGTGTATAAGAGACAGTTTTTTTTTTTTTTTTTTTTTTTTT…TC
Details: aptamer strand: ATP DNA aptamer (quencher-CACCTGGGGGAGTATTGCGGAGGAAGG + anchor), 100 nM annealed; ATP concentration: 500 uM; one replicate
Outline: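 Cy3-labelled switching-strand clusters on a modified Illumina MiSeq flow-cell were annealed to 100 nM quencher-labelled ATP aptamer and imaged first in selection buffer, then after 15 min with 500 uM ATP at 22 °C. NaOH stripping and re-annealing separated each of five buffer/ATP cycles, and clusters outside 100-1000 RFU were excluded. The fluorescence ratio sums target-cycle Cy3 intensity over buffer-cycle Cy3 intensity per cluster and averages it per switch-domain sequence.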
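Also: ATP exposure 15 min at 22 °C before imaging.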

| Sequence | switch fluorescence ratio |
| --- | --- |
| TCAGAACTCG | 0.956 |
| AAATGTGGAC | 1.04 |
| GCGATTGCTC | 1.17 |
| TGAGGAGTCT | 1.05 |
| AAAAGCTGGA | 1.02 |
| CTGCGACTGA | 1.01 |
| AGACTCAGCC | 1.14 |
| TCCTTTCCGT | 1.17 |
| GCTCTGAACG | 1.02 |
| AAGGATTTTC | 0.994 |
| TCGATTCGAG | 1.01 |
| CAGTCAAAC | 1.21 |
| ATACATATGG | 1.05 |
| TCACAGTGTA | 1.01 |
| GAGCGATCAG | 0.994 |
| TTCACAAGCA | 1.08 |
| GGTCTAAA | 1.02 |
| GTCTTATG | 1.06 |
| GTCCCCTATT | 1.02 |
| CAACAGCTAC | 4.08 |
| CAAGCCGTCG | 0.984 |
| ATGAGTCCTA | 0.999 |
| GGGCTTGAAA | 1.08 |

| Sequence | switch fluorescence ratio |
| --- | --- |
| ACAGGGGCAC | 1.14 |
| AAATCATCCG | 1.14 |
| ACTCCAAATT | 1.24 |
| CACCATGCGG | 0.933 |
| CTAGCGTACT | 1.29 |
| GACGAGGCTC | 1.74 |
| ATGTTATCGT | 1.02 |
| ACCTACTATA | 1.26 |
| GCGTTGTTCT | 0.979 |
| TAGCTAATGT | 1.02 |
| TGTCGAAGGG | 1.04 |
| CGCGGGCAG | 0.99 |
| CGTGAGATTC | 0.999 |
| GGCGGGGATG | 0.98 |
| GATCTCTCAA | 1.03 |
| CTATCTTCGT | 1 |
| TCTCAGGCAA | 3.87 |
| CCTGGTATCC | 1.01 |
| TGCAAGATAG | 1.07 |
| TAAATCTAA | 1 |
| TACGTTTTAG | 0.976 |
| GTCCGGAGCT | 3.5 |
| GTAGGTGTTC | 0.993 |

| Sequence | switch fluorescence ratio |
| --- | --- |
| AGGGTGAACT | 1.02 |
| GGGGGAATT | 0.955 |
| TCAGATTATT | 0.995 |
| ATCTGGTAT | 0.972 |
| CATCACAGAG | 0.964 |
| CGGAGAAACG | 1.01 |
| ACCCTAGTGT | 1.13 |
| ACTTAATAAT | 0.944 |
| GGCGATAGTC | 1.07 |
| TTGCCAGTTA | 1.04 |
| AGTCTATAAC | 1 |
| TGATAGTTTT | 1 |
| TCTCCCGTTA | 1.21 |
| GCGTTCTTAC | 1.03 |
| CAGGTTTA | 1.03 |
| TCCCCATCC | 1.08 |
| TGGCTATAAT | 1.06 |
| TTGGGGG | 1.03 |
| CCTATACCGC | 2.4 |
| GGGGGTGGT | 0.987 |
| CGACGTAGTA | 1.32 |
| AGCATCCGAT | 1.04 |
| TTAAGTATTC | 0.988 |

| Sequence | switch fluorescence ratio |
| --- | --- |
| CATGGCCGTT | 0.951 |
| CTAACACTCT | 0.99 |
| GCTTTTCCTG | 0.993 |
| CCGTAGCTCG | 1.84 |
| TCTGGTGAGG | 0.986 |
| ACAATGCTT | 1.05 |
| TATAAACGG | 0.998 |
| TTTAAATGTA | 1.02 |
| CCAAGCTGGG | 1.05 |
| GGTTGTGCAG | 0.973 |
| GTCCGAACAG | 1.11 |
| TGGCACCTAA | 1.05 |
| AATACATGTG | 0.999 |
| ATGTGGGACA | 1.07 |
| AACGGTTGAG | 1.04 |
| CATGATGCAC | 1.06 |
| TGATTGAGGT | 1.01 |
| TGCGACTTTA | 1.06 |
| CTTACGGGCG | 0.973 |
| CAATGTCATC | 0.947 |
| AAGGTACAGG | 1.1 |
| CATTCCTTAC | 2.22 |
| CCGGTGTGTG | 0.959 |

| Sequence | switch fluorescence ratio |
| --- | --- |
| GCAACAATTG | 0.979 |
| CTAACTTTAT | 1.02 |
| TGACTAAAG | 1.03 |
| TTCTCGCTCG | 1.11 |
| TACGAGGCAG | 1.55 |
| CTCTGGCCAA | 2.37 |
| GACGGTTGAA | 0.995 |
| GTTACGGGAT | 1.02 |
| ACATGAGGG | 1 |
| CTTTAGTGGG | 1.03 |
| CGGACGTCTA | 1.12 |
| TCCCCCCTCA | 1.68 |
| TCGTAAAAC | 1.56 |
| GTGGAGGCCC | 0.991 |
| GCAAAAAGA | 1.5 |
| TGCGGAATTC | 1.32 |
| TGCTCTGGCT | 1.04 |
| TTAAACTCGT | 1.07 |
| TCAACCACAT | 1.07 |
| AAGATCCTAG | 0.987 |
| GGAGACCGAA | 1.04 |
| CAAAATTGAT | 1.01 |
| AGCTCGGAAA | 1.01 |

| Sequence | switch fluorescence ratio |
| --- | --- |
| AGTCGCGTGT | 0.978 |
| GTTTCTGTT | 0.966 |
| TGATTCAGCA | 1.02 |
| TGGATATGCA | 1.01 |
| AAGCCGCTGG | 1.04 |
| GAATTTCTAC | 1.09 |
| CAGGAAGAGG | 0.956 |
| AACAAAATAC | 1.61 |
| TCACAATGGG | 1.01 |
| TGGCTTAGAG | 0.962 |
| TCAGCTCGGC | 0.994 |
| TGCGGATTGG | 1.02 |
| CACTTTTT | 1.04 |
| ACTGGTTGTG | 1.01 |
| ACGATGACTC | 1.36 |
| AGGTACAGGA | 1.03 |
| GGGTAAATAC | 1.35 |
| GGGCGCAATT | 1.02 |
| ATATCTATCT | 0.996 |
| ACCCGTGTTC | 1.05 |
| TATAGAAAAG | 1.02 |
| AGTCAGGGTG | 1.1 |
| CTATTTGGGT | 0.989 |

| Sequence | switch fluorescence ratio |
| --- | --- |
| GTGTCGGTCT | 1.04 |
| GCGGGGTCAC | 1.01 |
| CAAGGATCGT | 0.961 |
| AGTTCCAACT | 1.01 |
| TATGTCCTTT | 0.955 |
| GCATCATCTC | 1.03 |
| ATCGCGGTTC | 1.26 |
| TTAGATGCA | 0.96 |
| ATAGTAAAGT | 1.02 |
| GTAAGCCTGA | 0.998 |
| GCGTCGAGG | 1.06 |
| TAAACGGGAA | 1.01 |
| CCTGCCGGAT | 1.07 |
| GCACGGCTAA | 1.02 |
| ACGCTACATC | 1.56 |
| TCATAAAG | 1.02 |
| GCCCTATTCA | 0.991 |
| CAGGATAGCA | 1.04 |
| ATTGGAATTC | 0.944 |
| TTACGAGTCC | 1.03 |
